{"source": "PubChem BioAssay AID493208", "about": "(National Center for Advancing Translational Sciences (NCATS), 2011)", "note": "About 340 (0.77%) of roughly 44,000 compounds were called active. Not shown: some 5% with an inconclusive outcome. Calls come from the whole dose curve; as a rule, active = well fitted inhibition curve with a large enough effect; inconclusive = small, poorly fitted or top-dose-only effect; inactive = flat fitted curve, though single readings scatter. This is one part of the list. Potency is the fitted concentration of half-maximal effect.", "data": [{"assay": "Acumen qHTS Assay for Inhibitors of the mTORC1 Signaling Pathway in MEF (Tsc2-/-, p53-/-) Cells: Sytravon; note: nearly all actives have a fitted effect of over 50% in size", "settings": "phospho-rpS6 immunofluorescence/PI, 24 h; series mostly up to 38.3 µM; activity change, negative = inhibition: at the top concentration", "from_the_text": "NIH Molecular Libraries Probe Production Centers Network [MLPCN] NIH Chemical Genomics Center [NCGC] MLPCN Grant: NS059428-01 Assay Submitter (PI): Blenis, John; Hoffman, Greg; Harvard University NCGC Assay Overview: The mammalian target of rapamycin (mTOR) is an intracellular serine/threonine kinase Aberrant regulation of mTOR signaling plays a causative role in a number of human diseases, including cancer, benign tumors such as lymphangioleiomyomatosis (LAM) and Tuberous Sclerosis Complex (TSC), and metabolic diseases such as diabetes and obesity. This project aims to identify inhibitors of ribosomal protein S6 (rpS6) phosphorylation. The phosphorylation of rpS6 is a key event downstream of mTOR activation. The assay uses a phospho-specific antibody of phospho-rpS6 to detect inhibitors of mTOR activation. Mutations in the Tsc1 and Tsc2 genes are the underlying genetic lesions responsible for TSC, causing constitutive activation of the mTORC1 pathway and leading to profound effects on cell metabolism. Aberrant metabolism in cancer has recently received significant attention as a target to develop therapeutic agents in the treatment of cancer.1 As Tsc2-/- cells have lost the ability to respond to energy and growth factor deprivation, these cells are unable to properly down regulate cellular biosynthetic processes in response to metabolic stress, and are thus extremely sensitive to glucose deprivation-induced death.2 A central goal of this project is to explore the unique cell survival and metabolic properties of cells with Tsc1 or Tsc2 by screening for compounds that selectively target the Tsc2-/- MEFs by screening both Tsc2-/- and WT MEF cell lines. We hope to better understand these aspects of TSC physiology in order to exploit them for therapeutic benefit.\nNCGC Acumen Assay Protocol Summary: For quantitative high throughput analysis of mTORC1 signaling, we developed a cell-based assay for immuno-fluorescence based detection of rpS6 phosphorylation on the Acumen Explorer that will be used a platform for the primary small molecule screen. Mouse embryonic fibroblasts (MEFs) are cultured in 1536-well plates using DMEM + 10% FBS. Twenty-four hrs after plating, test compounds (solubilized in DMSO) are delivered and incubated with the cells for 24 hrs at 37 degree Celsius. Following the incubation, media with compound is aspirated and the cells are fixed in 4% paraformaldehyde (PFA) containing PBS + 0.2% TX-100. Next, PFA is aspirated, cells are washed two times with PBS plus 0.2% TX-100 and the cells are blocked for 1 hr at room temperature (blocking buffer: LiCOR Blocking Buffer plus 0.2% TX-100). […] Cells are washed two times with PBS plus 0.2% TX-100, and stained with 10 uM propidium iodide (PI) for 20-25 minutes for cell number measurement (1:500 dilution of Hoescht staining is also added for IN Cell imaging). The plates are scanned on the Acumen Explorer laser scanning instrument (TTP Labtech) using the 488nm laser for simultaneous excitation of the Alexa-488 and PI. […] The normalized phospho-S6 staining is calculated as the ratio of the integrated Alexa 488 intensity divided by the integrated PI intensity for the single concentration rapamycin control (7.5 nM) and DMSO columns. […] Inhibition of the pathway is defined based on the normalized phospho-S6 intensity in rapamycin treated cells. Active cells are defined as those with a normalized phospho-S6 staining above this threshold, and each treatment is reported as the % positive cells in the well, where thresholds are defined by selecting wells with the highest and lowest signal and differentiating between the % non-active and % active populations. In addition to the pathway specific phospho-S6 endpoint, the number of PI stained cells from the Acumen is recorded as a measure of cell viability. The primary screen was performed with a MEF cell line in a defined genetic background, Tsc2-/-, p53-/- cell line stably transfected with an empty vector control (Tsc2-/- MEF).", "values": [{"smiles": "COc1cc2[nH]c(=O)n(-c3ccc(C)cc3)c(=O)c2cc1OC", "activity change, negative = inhibition": "inactive: -5.39%"}, {"smiles": "CCN(CC)C(=O)c1ccc(NC(=O)COc2ccc(-c3nn(C)c(=O)c4ccccc34)cc2)cc1", "activity change, negative = inhibition": "inactive: -16.3%"}, {"smiles": "CCOc1ccc(N(C(C)C(=O)Nc2cc(Cl)ccc2OC)S(C)(=O)=O)cc1", "note": "(stereo not given)", "Potency": "active: 7.36 µM"}, {"smiles": "Cc1ccc2c(=O)n(-c3cccc(Cl)c3)c(=O)[nH]c2c1", "activity change, negative = inhibition": "inactive: -3.18%"}, {"smiles": "Cc1ccc2nc(NC(=O)c3cccn(Cc4ccccc4F)c3=O)sc2c1", "activity change, negative = inhibition": "inactive: 0.0858%"}, {"smiles": "O=c1c2ccccc2nc(/C=C/c2cccc3ccccc23)n1-c1ccc(Cl)cc1", "activity change, negative = inhibition": "inactive: 4.04%"}, {"smiles": "COc1cc(OC)cc(C(=O)Nc2ccc(Cl)cc2C(=O)c2ccccc2Cl)c1", "activity change, negative = inhibition": "inactive: 4.58%"}, {"smiles": "CCC12CN3CC(CC)(CN(C1)C3c1c(C)[nH]c(=O)[nH]c1=O)C2=O", "note": "(stereo not given)", "activity change, negative = inhibition": "inactive: 0.759%"}, {"smiles": "COc1cccc(-n2c(/C=C\\c3ccc(Cl)cc3)nc3ccccc3c2=O)c1", "activity change, negative = inhibition": "inactive: 10.4%"}, {"smiles": "c1cnc2c(c1)ncn2C1CCNCC1", "activity change, negative = inhibition": "inactive: 0%"}, {"smiles": "Cc1ccc(C(C)(C)C)c(OCC(=O)Nc2ccc(Cl)cc2C(=O)c2ccccc2)c1", "activity change, negative = inhibition": "inactive: -0.761%"}, {"smiles": "Cc1ccc(OCC(=O)N2CCN(Cc3ccc(F)cc3)CC2)cc1", "activity change, negative = inhibition": "inactive: -20.5%"}, {"smiles": "O=C(COc1ccc(Br)cc1)Nc1ccc(Cl)cc1C(=O)c1ccccc1", "activity change, negative = inhibition": "inactive: 0.151%"}, {"smiles": "Cc1cc(C)cc(NC(=O)CN2C(=O)CN=C(c3ccccc3)c3cc(Cl)ccc32)c1", "activity change, negative = inhibition": "inactive: 1.46%"}, {"smiles": "Cc1ccc(-n2c(/C=C\\c3ccc(F)c(F)c3)nc3ccccc3c2=O)c(C)c1", "activity change, negative = inhibition": "inactive: 6%"}, {"smiles": "Cc1ccccc1-c1nn2c(=O)cc(CN3CCN(C(=O)COc4ccccc4Cl)CC3)nc2s1", "activity change, negative = inhibition": "inactive: 0%"}, {"smiles": "Cc1cccc(OCC(=O)N2CCN(Cc3cc(=O)n4nc(-c5ccccc5Cl)sc4n3)CC2)c1", "activity change, negative = inhibition": "inactive: 0%"}, {"smiles": "CC(=O)c1cccc(NC(=O)c2cccn(Cc3cccc(C)c3)c2=O)c1", "activity change, negative = inhibition": "inactive: -0.59%"}, {"smiles": "N#Cc1cc2c(nc1SCC(=O)Nc1cccc(C(F)(F)F)c1)C1CCN2CC1", "activity change, negative = inhibition": "inactive: -10.9%"}, {"smiles": "COc1ccc(C(c2c(O)c3ccccc3oc2=O)c2c(C)n(C)n(-c3ccccc3)c2=O)cc1", "note": "(stereo not given)", "activity change, negative = inhibition": "inactive: 3.39%"}, {"smiles": "CCSc1nnc(NC(=O)c2cccn(Cc3ccccc3Cl)c2=O)s1", "activity change, negative = inhibition": "inactive: 0.739%"}, {"smiles": "CCOc1ccccc1NC(=O)c1cccn(Cc2ccccc2C)c1=O", "activity change, negative = inhibition": "inactive: -1.07%"}, {"smiles": "Cc1ccc(NC(=O)CN2C(=O)CN=C(c3ccccc3)c3ccccc32)cc1Cl", "activity change, negative = inhibition": "inactive: -3.79%"}, {"smiles": "CCc1ccc(-n2nc(C)c3c2NC(=O)CSC3c2ccccc2C)cc1", "note": "(stereo not given)", "activity change, negative = inhibition": "inactive: -0.671%"}, {"smiles": "Cc1ccc(OCC(=O)Nc2ccc(Cl)cc2C(=O)c2ccccc2)c(Br)c1", "activity change, negative = inhibition": "inactive: 1.91%"}, {"smiles": "COc1ccc(NC(=O)CN2C(=O)C(C)N=C(c3ccccc3)c3ccccc32)cc1OC", "note": "(stereo not given)", "activity change, negative = inhibition": "inactive: -4.18%"}, {"smiles": "Cc1ccc(Cn2cccc(C(=O)Nc3nc4ccc(C)cc4s3)c2=O)cc1", "activity change, negative = inhibition": "inactive: -6.15%"}, {"smiles": "O=C(Nc1ccc2c(c1)OCO2)c1cccn(Cc2ccccc2)c1=O", "activity change, negative = inhibition": "inactive: 0.388%"}, {"smiles": "O=C(Nc1ccon1)c1cccn(Cc2cccc([N+](=O)[O-])c2)c1=O", "activity change, negative = inhibition": "inactive: -6.12%"}, {"smiles": "Nc1c(C(=O)Nc2ccc(F)c(Cl)c2)sc2nc3c(cc12)N1CCC3CC1", "activity change, negative = inhibition": "inactive: -17%"}, {"smiles": "CCOc1ccc2nc(NC(=O)c3cccn(Cc4ccc(C)cc4)c3=O)sc2c1", "activity change, negative = inhibition": "inactive: -4.76%"}, {"smiles": "O=C(Nc1ccc(F)c(Cl)c1)N(Cc1ccc2c(c1)OCO2)C1CCN(Cc2ccccc2)CC1", "activity change, negative = inhibition": "inactive: -19.6%"}, {"smiles": "Cc1cccc(Cn2cccc(C(=O)Nc3nnc(C)s3)c2=O)c1", "activity change, negative = inhibition": "inactive: 0.966%"}, {"smiles": "O=C1CC(c2ccc(C(F)(F)F)cc2)c2c(c3ccccc3oc2=O)O1", "note": "(stereo not given)", "activity change, negative = inhibition": "inactive: -21.7%"}, {"smiles": "Cc1ccc(-c2nc(CN3C(=O)CN=C(c4ccccc4Cl)c4cc(Cl)ccc43)c(C)o2)cc1", "activity change, negative = inhibition": "inactive: 0.411%"}, {"smiles": "O=C(Nc1ccc2c(c1)OCCO2)c1cccn(Cc2ccccc2)c1=O", "activity change, negative = inhibition": "inactive: 0.933%"}, {"smiles": "COC(=O)c1ccccc1NC(=O)c1cccn(Cc2cccc(Cl)c2)c1=O", "activity change, negative = inhibition": "inactive: -6.21%"}, {"smiles": "COc1ccc(NC(=O)CCc2nc(C3=CCN(Cc4cccc(Cl)c4)CC3)no2)cc1OC", "activity change, negative = inhibition": "inactive: 0%"}, {"smiles": "N#Cc1cccc(NC(=O)c2sc3nc4c(cc3c2N)N2CCC4CC2)c1", "activity change, negative = inhibition": "inactive: 2.47%"}, {"smiles": "COc1ccc(CCNCc2ccc3c(c2)n(C)c(=O)n3C)cc1", "activity change, negative = inhibition": "inactive: 0.991%"}, {"smiles": "O=C1CC(c2ccc(F)cc2)c2c(c3ccccc3oc2=O)O1", "note": "(stereo not given)", "activity change, negative = inhibition": "inactive: -4.27%"}, {"smiles": "N#Cc1cc2c(nc1SCC(=O)Nc1ccc(F)c(Cl)c1)C1CCN2CC1", "activity change, negative = inhibition": "inactive: -0.0249%"}, {"smiles": "CCCC12CN3CC(C)(CN(C1)C3c1ccccn1)C2=O", "note": "(stereo not given)", "activity change, negative = inhibition": "inactive: 4.25%"}, {"smiles": "O=c1c2ccccc2nc(/C=C/c2ccccc2O)n1-c1ccc(Br)cc1", "activity change, negative = inhibition": "inactive: -21%"}, {"smiles": "Cc1ccc(-n2nc(C)c3c2NC(=O)CSC3c2ccc(O)cc2)cc1Cl", "note": "(stereo not given)", "activity change, negative = inhibition": "inactive: -2.41%"}, {"smiles": "Cc1ccccc1-n1c(/C=C/c2ccc(O)cc2)nc2ccccc2c1=O", "activity change, negative = inhibition": "inactive: -29.3%"}, {"smiles": "CC(C)(C)c1ccc(OCC(=O)Nc2ccc(Cl)cc2C(=O)c2ccccc2)cc1", "activity change, negative = inhibition": "inactive: -7.31%"}, {"smiles": "CCOc1ccccc1CN(CCc1ccc2c(c1)OCO2)Cc1ccc(CC)cc1", "activity change, negative = inhibition": "inactive: 0.16%"}, {"smiles": "CSc1ncc(C(=O)Nc2ccc(Cl)cc2C(=O)c2ccccc2)c(C)n1", "activity change, negative = inhibition": "inactive: 4.89%"}, {"smiles": "N#Cc1cccc(NC(=O)CSc2nc3c(cc2C#N)N2CCC3CC2)c1", "activity change, negative = inhibition": "inactive: -6.87%"}]}]}
